These results are taken from article PMC12679550 (ACS Chemical Neuroscience, 2025).

Assay [1] deals with T1, human α2CRs (Homo sapiens, UniProt P18825).
T1 sequence (P18825 1-462): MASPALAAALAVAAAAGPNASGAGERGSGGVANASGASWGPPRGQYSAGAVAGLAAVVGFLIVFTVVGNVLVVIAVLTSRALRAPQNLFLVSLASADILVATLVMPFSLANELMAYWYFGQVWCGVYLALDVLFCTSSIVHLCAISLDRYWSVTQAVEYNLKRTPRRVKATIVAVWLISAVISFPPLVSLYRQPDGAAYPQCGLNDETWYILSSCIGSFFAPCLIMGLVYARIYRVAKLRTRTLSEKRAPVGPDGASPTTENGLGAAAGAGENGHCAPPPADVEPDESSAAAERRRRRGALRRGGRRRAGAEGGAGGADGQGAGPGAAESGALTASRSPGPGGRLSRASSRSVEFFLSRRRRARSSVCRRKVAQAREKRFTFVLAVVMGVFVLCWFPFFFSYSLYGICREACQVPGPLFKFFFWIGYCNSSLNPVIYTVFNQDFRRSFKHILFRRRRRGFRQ
In words: cell-based. Conditions: HEK293, read-out: Emax relative to epinephrine at α2C-Gαi2.

In assay [2] the target is T1, human α2CRs. Conditions: for Activation of Gαi/o subtypes coupled to α2CRs: 10 μM screen, 5 min exposure; for Activation of α2CR-Gαi1 after 30 min exposure: 30 min before adding coelenterazine, up to 10 μM, Figure S3.

A word on the Emax: it is the size of the effect at its maximum, as opposed to the concentration needed. For the molecule `Clc1cccc(Cl)c1N=C1NCCN1` [clonidine], at human α2CRs [1], the Emax is 23 to 30%. Moreover, at human α2CRs [2], the “Activation of Gαi/o subtypes coupled to α2CRs” value is “significantly activated each of the Gαi/o subtypes” and the “Activation of α2CR-Gαi1 after 30 min exposure” value was “agonist effects”.
With mitragynine, on human α2CRs [2], the “Activation of Gαi/o subtypes coupled to α2CRs” value is reported as “no significant activity” and the “Activation of α2CR-Gαi1 after 30 min exposure” value is on record as “did not activate α2CR–Gαi1”.
